Molecules are shown by their SMILES. Several values for one entry are separate records, joined by “and”; a condition that tells them apart may be missing. Equal values may be shown once. Where a name gives a salt, the structure may show the parent alone. ± gives the standard deviation of the averaged measurements. Whole data set: some 2,000 compounds, median “cell viability relative to DMSO control (compound alone)” near 0.98, cut for the lowest 2% near 0.23. This is one part of the list.

The experiment concerns PDC-DUC18828. The experiment can be described thus: cell viability relative to DMSO control (compound alone) (fraction); PDC-DUC18828 is a patient-derived cholangiocarcinoma cell line; higher = less growth inhibition. As to conditions: 1 µM; 72 h. The protocol:
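Selleck Bioactive library screen in the patient-derived FGFR2-G3BP2 fusion-positive ICC cell line PDC-DUC18828 (500 cells/well). Each compound was tested at 1 uM alone, in triplicate, for 72 h. Viability was read by CellTiter-Glo and normalised to plate DMSO controls.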
Consider `COc1nccc(-c2c(-c3ccc(F)cc3)ncn2C2CCC(O)CC2)n1` (configuration not stated), for which the cell viability was 1 ± 0.038. To `Cc1c(C(=O)Nc2ccc(Oc3ccnc4[nH]cc(-c5ccccc5)c34)c(F)c2)c(=O)n(-c2ccc(F)cc2)n1C` belongs 0.795 ± 0.012; to `CN[C@@H](C)C(=O)N[C@H](C(=O)N1CCC[C@H]1c1nc(C(=O)c2ccc(F)cc2)cs1)C1CCCCC1`, 0.99 ± 0.033; to `COc1c(C)c(C(=O)c2ccc(N)c(C(=O)O)c2)n2ccccc12`, 0.981 ± 0.029. As for `CC(=O)Oc1ccccc1C(=O)Nc1ncc([N+](=O)[O-])s1` [Nitazoxanide], the figure is 1.04 ± 0.035; as for `NC(=O)c1ccc(N(C(N)=O)c2c(F)cccc2F)nc1-c1ccc(F)cc1F`, 0.831 ± 0.019. The compound `CCCc1cc(C)[nH]c(=O)c1CNC(=O)c1cc(-c2ccc(N3CCN(C(C)C)CC3)nc2)cc2c1cnn2C(C)C` returned a cell viability of 0.93 ± 0.011. Turning to `COc1ccc([C@@H]2CC(=O)c3c(O)cc(O)cc3O2)cc1O` [Hesperetin], the cell viability came to 1.01 ± 0.073. In turn, `Nc1c(CC(=O)O)cccc1C(=O)c1ccccc1` [Amfenac Sodium Monohydrate] yielded a cell viability of 0.942 ± 0.021. Take `CC(C)(C)C(=O)Nc1ccc2c(c1)C(=O)C(=O)c1ccccc1-2`: the cell viability was 1.07 ± 0.024. As for `O=C(Nc1cccc(Cl)c1)c1ccccn1`, the figure is 0.954 ± 0.051; as for `N#Cc1ccc(C(c2ccc(C#N)cc2)n2cncn2)cc1` [Letrozole], 0.954 ± 0.055; as for `Clc1ccc(CCC(Cn2ccnc2)Sc2c(Cl)cccc2Cl)cc1` (configuration not stated) [Butoconazole nitrate], 0.915 ± 0.061. Compound `C[C@@]1(C(=O)Nc2ccc(F)nc2)CCCN1c1nc(Nc2cc(C3CC3)n[nH]2)c2cccn2n1` returned a cell viability of 0.734 ± 0.019. Compound `CN(C)C(=O)Nc1cccc(-c2ccc(N(C)C)cc2)c1` [Atglistatin] gave a cell viability of 0.939 ± 0.079.

`CC(C)CC(N)=O` [Isovaleramide] returned a cell viability of 1.05 ± 0.017. Take `CN1CCN(C2=Nc3ccccc3Oc3ccc(Cl)cc32)CC1` [Loxapine Succinate]: the cell viability stood at 1.05 ± 0.022. As for `N=C(NCCCCCCNC(=N)NC(=N)Nc1ccc(Cl)cc1)NC(=N)Nc1ccc(Cl)cc1` [Chlorhexidine HCl], the cell viability came to 0.942 ± 0.057.

Compound `COc1c2occc2cc2ccc(=O)oc12` [Methoxsalen] displayed a cell viability of 1.01 ± 0.019. As for `CCOC(=O)[C@@H](N)Cc1ccc(-c2cc(O[C@H](c3ccc(Cl)cc3-n3ccc(C)n3)C(F)(F)F)nc(N)n2)cc1` [Telotristat Etiprate (LX 1606 Hippurate)], the cell viability came to 1 ± 0.037. For the compound `c1ccc(NCc2ccc(CNc3ccccn3)cc2)nc1`, the cell viability worked out at 1.03 ± 0.05.

In turn, `COC(=O)c1ccc2c(c1)nc(NC(=O)c1ccccc1)n2CCCc1ccccc1` registered a cell viability of 0.926 ± 0.019. Turning to `CN1CCN(Cc2ccc(Nc3ncc(Cl)c(Nc4ccccc4S(=O)(=O)N(C)C)n3)cc2)CC1`, the cell viability is 0.777 ± 0.018. With `Cc1nnc(C(=O)NC(C)(C)c2nc(C(=O)NCc3ccc(F)cc3)c(O)c(=O)n2C)o1` [Raltegravir (MK-0518)], the cell viability was 1.02 ± 0.069. Consider `O=C(NC[C@H]1CN(c2ccc(N3CCOCC3=O)cc2)C(=O)O1)c1ccc(Cl)s1` [Rivaroxaban], for which the cell viability turned out to be 0.987 ± 0.045. Take `C[C@@H]1C[C@H]2[C@@H]3C[C@H](F)C4=CC(=O)C=C[C@]4(C)[C@@]3(F)[C@@H](O)C[C@]2(C)[C@@]1(O)C(=O)CO` [Flumethasone]: the cell viability was found to be 0.976 ± 0.036. On to `C[C@@H](Oc1ccc2[nH]nc(/C=C/c3cnn(CCO)c3)c2c1)c1c(Cl)cncc1Cl`, for which the cell viability was 0.234 ± 0.017. The compound `C[C@H]1O[C@H](O[C@H]2[C@H](O)[C@@H](O)[C@@H](O[C@H]3[C@H](O)[C@@H](O)C(O)O[C@@H]3CO)O[C@@H]2CO)[C@H](O)[C@@H](O)[C@@H]1N[C@H]1C=C(CO)[C@@H](O)[C@H](O)[C@H]1O` (some centres not stated) [Acarbose] showed a cell viability of 1.023 ± 0.0077. As for `CNC1CCCN(c2c(F)cc3c(=O)c(C(=O)O)cn(C4CC4)c3c2OC)C1` (configuration not stated) [Balofloxacin], the figure is 1.01 ± 0.035.

As to `CC[C@H]1[C@@H](O)[C@@H]2[C@H](CC[C@]3(C)[C@@H]([C@H](C)CCC(=O)O)CC[C@@H]23)[C@@]2(C)CC[C@@H](O)C[C@@H]12` [Obeticholic Acid], the cell viability was found to be 0.945 ± 0.023. To `CN1CCC(=C2c3ccccc3C=Cc3ccccc32)CC1` [Cyproheptadine HCl] belongs 0.996 ± 0.068. In the case of `N=C(N)NC(=N)NCCc1ccccc1` [Phenformin HCl], the cell viability stood at 1.03 ± 0.013.

On to `CO[C@H]1/C=C/O[C@@]2(C)Oc3c(C)c(O)c4c(O)c(c(/C=N/N5CCN(C6CCCC6)CC5)c(O)c4c3C2=O)NC(=O)/C(C)=C\C=C\[C@H](C)[C@H](O)[C@@H](C)[C@@H](O)[C@@H](C)[C@H](OC(C)=O)[C@@H]1C` [Rifapentine], for which the cell viability was 0.922 ± 0.01.

Compound `CCCc1cc(C(N)=S)ccn1` [Protionamide] returned a cell viability of 0.942 ± 0.057. `COc1cccc2c1c(O)c(C(=O)N(C)c1ccc(C(F)(F)F)cc1)c(=O)n2C` [Tasquinimod] registered a cell viability of 0.922 ± 0.054. `CC(=O)S[C@@H]1CC2=CC(=O)CC[C@]2(C)[C@H]2CC[C@@]3(C)[C@@H](CC[C@@]34CCC(=O)O4)[C@H]12` [Spironolactone]: the cell viability came out at 0.932 ± 0.066. Regarding `C#Cc1cccc(Nc2ncnc3cc(OC)c(OCCCCCCC(=O)NO)cc23)c1`, the cell viability turned out to be 0.865 ± 0.045. To `O=C(O)[C@]1(Cc2cccc(Nc3nccs3)n2)CC[C@@H](Oc2cccc(Cl)c2F)CC1` belongs 0.481 ± 0.023. Regarding `COc1cc2c(Nc3ccc(NC(=O)c4ccccc4)cc3)ncnc2cc1OCCCN1CCOCC1`, the cell viability is 0.871 ± 0.029. `CC(=O)Nc1ccc(C(=O)Nc2ccccc2N)cc1` [CI994 (Tacedinaline)] gave a cell viability of 0.99 ± 0.018. As for `C=C1CC[C@H](O)C/C1=C/C=C1\CCC[C@]2(C)[C@@H]([C@H](C)CCCC(C)C)CC[C@@H]12` [Vitamin D3], the figure is 0.966 ± 0.016. As for `CC(C)(O)[C@H]1CC[C@@](C)([C@H]2[C@@H](O)C[C@@]3(C)[C@@H]4C[C@H](O[C@@H]5O[C@H](CO)[C@@H](O)[C@H](O)[C@H]5O)[C@H]5C(C)(C)[C@@H](O[C@@H]6OC[C@@H](O)[C@H](O)[C@H]6O)CC[C@@]56C[C@@]46CC[C@]23C)O1` [Astragaloside A], the figure is 0.922 ± 0.024; as for `COC(=O)Nc1nc2cc(C(=O)c3cccs3)ccc2[nH]1` [Nocodazole], 0.367 ± 0.024; as for `COc1cc(Br)c(Nc2nc(-c3c(C)nc4ncccn34)cs2)c(Br)c1`, 0.453 and 0.354. To `CC(C)(C)c1cnc(CSc2cnc(NC(=O)C3CCNCC3)s2)o1` belongs 0.265 ± 0.013; to `CCN[C@H]1CN(CCCOC)S(=O)(=O)c2sc(S(N)(=O)=O)cc21` [Brinzolamide], 0.983 ± 0.037. Consider `CC(C)c1c(C(=O)Nc2ccccc2)c(-c2ccccc2)c(-c2ccc(F)cc2)n1CC[C@@H](O)C[C@@H](O)CC(=O)O` [Atorvastatin Calcium], for which the cell viability is 0.958 ± 0.043. As for `OC(Cn1cncn1)(Cn1cncn1)c1ccc(F)cc1F` [Fluconazole], the figure is 1.02 ± 0.035; as for `NCCc1c[nH]cn1` [Histamine 2HCl], 1.02 ± 0.033; as for `C[C@@H](NCCCc1cccc(C(F)(F)F)c1)c1cccc2ccccc12` [Cinacalcet HCl], 0.937 ± 0.043.

As to `CC(=O)Nc1cccc(-n2c(=O)n(C3CC3)c(=O)c3c(Nc4ccc(I)cc4F)n(C)c(=O)c(C)c32)c1`, the cell viability was 0.89 ± 0.035. As for `Nc1[nH]cnc2ncnc1-2` [Adenine HCl], the figure is 1.02 ± 0.019. Consider `COc1cc2ncnc(Sc3nnc(C)s3)c2cc1OC`, for which the cell viability came to 1 ± 0.058. As for `O=C(NC[C@H](O)CN1CCc2ccccc2C1)c1cc(NC2COC2)ncn1`, the figure is 0.914 ± 0.013; as for `Cc1ccc(S(=O)(=O)c2ccc([N+](=O)[O-])o2)cc1`, 0.179 ± 0.033; as for `O=C1NC(=O)C(c2cnc3ccccn23)=C1c1cn2c3c(cc(F)cc13)CN(C(=O)N1CCCCC1)CC2`, 0.635 ± 0.0071. In turn, `C[C@]12C=CC(=O)C=C1CC[C@@H]1[C@@H]2C(=O)C[C@@]2(C)[C@H]1CC[C@]2(O)C(=O)CO` [Prednisone] registered a cell viability of 1.09 ± 0.016.

`c1ccc2c(Oc3nc(Nc4ccc(N5CCOCC5)cc4)c4ncn(C5CCCCC5)c4n3)cccc2c1` [Purmorphamine]: the cell viability worked out at 0.933 ± 0.06. `CCOC(=O)CCC(=O)O[C@H]1[C@H](O[C@@H]2[C@@H](C)[C@H](O[C@H]3C[C@@](C)(OC)[C@@H](O)[C@H](C)O3)[C@@H](C)C(=O)O[C@H](CC)[C@@](C)(O)[C@H](O)[C@@H](C)C(=O)[C@H](C)C[C@@]2(C)O)O[C@H](C)C[C@@H]1N(C)C` [Erythromycin Ethylsuccinate] returned a cell viability of 1.02 ± 0.022. As for `COc1cc(NC(=O)c2ccc(-c3ccc(Cl)cc3)o2)cc(OC)c1`, the figure is 0.995 ± 0.041. As for `CS(=O)(=O)Nc1ccc([N+](=O)[O-])cc1Oc1ccccc1` [Nimesulide], the figure is 0.996 ± 0.019. With `C=CC(=O)Nc1cccc(Nc2nc(Nc3ccc(NC4CN(CCF)C4)cc3OC)ncc2C(F)(F)F)c1`, the cell viability stood at 0.9123 ± 0.0075.

Regarding `CCC1=C[C@@H]2CN(C1)Cc1c([nH]c3ccccc13)[C@@](C(=O)OC)(c1cc3c(cc1OC)N(C)[C@H]1[C@@](O)(C(=O)OC)[C@H](OC(C)=O)[C@]4(CC)C=CCN5CC[C@]31[C@@H]54)C2` [Vinorelbine Tartrate], the cell viability was determined as 0.256 ± 0.012. In turn, `CC(C)CN(C[C@@H](O)[C@H](Cc1ccccc1)NC(=O)O[C@H]1CCOC1)S(=O)(=O)c1ccc(N)cc1` [Amprenavir] had a cell viability of 1.05 ± 0.053. `CNC(=C[N+](=O)[O-])NCCSCc1csc(CN(C)C)n1` [Nizatidine] had a cell viability of 1.02 ± 0.027.

For the compound `CCNC(=O)c1noc(-c2cc(Cl)c(O)cc2O)c1-c1ccc(OC)cc1`, the cell viability is 0.289 ± 0.039.

The compound `CCOC(=O)c1ccc(N2NC(=O)C(=Cc3ccc([N+](=O)[O-])o3)C2=O)cc1` came in with a cell viability of 1.01 ± 0.055. For `CCn1cc(C(=O)O)c(=O)c2cc(F)c(N3CCN(C)CC3)cc21` [Pefloxacin Mesylate Dihydrate], the cell viability is 0.996 ± 0.053. As to `CCn1cc(C(=O)O)c(=O)c2cc(F)c(N3CCN(C)CC3)cc21` [Pefloxacin Mesylate], the cell viability came to 0.955 ± 0.053.

The compound `C[C@@H]1CN(c2c(F)c(N)c3c(=O)c(C(=O)O)cn(C4CC4)c3c2F)C[C@H](C)N1` [Sparfloxacin] had a cell viability of 1.02 ± 0.057. To `O=C(N/N=C/c1ccc([N+](=O)[O-])o1)c1ccc(O)cc1` [Nifuroxazide] belongs 0.884 ± 0.047; to `Cc1cc(NC(=O)c2cccc(NC(=O)/C=C/CN(C)C)c2)ccc1Nc1nccc(-c2cccnc2)n1`, 0.973 ± 0.042.
